Sequences with one replicate were seen in a single cluster, so their values are uncertain.
System: ATP
Experiment: switch fluorescence ratio, 500 uM ATP over buffer (Cy3 cluster intensity, sum of 5 cycles each) (fold (ratio)); higher = stronger signal-on switching upon ATP binding; sequences stand for … in TCGTCGGCAGCGTCAGATGTGTATAAGAGACAGTTTTTTTTTTTTTTTTTTTTTTTTT…TC
Details: aptamer strand: ATP DNA aptamer (quencher-CACCTGGGGGAGTATTGCGGAGGAAGG + anchor), 100 nM annealed; ATP concentration: 500 uM; one replicate
Procedure, shortened: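 Clusters with intensities outside 100-1000 RFU were excluded. The remaining Cy3-labelled switching-strand clusters on a modified Illumina MiSeq flow-cell had been annealed to 100 nM quencher-labelled ATP aptamer and imaged in selection buffer, then after 15 min with 500 uM ATP at 22 °C, for five cycles separated by NaOH stripping and re-annealing. The fluorescence ratio, averaged per switch-domain sequence, is each cluster's summed target-cycle Cy3 intensity over its summed buffer-cycle Cy3 intensity.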
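Note: ATP exposure 15 min at 22 °C before imaging.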

| Sequence | switch fluorescence ratio |
| --- | --- |
| ACGGGTCCG | 1.12 |
| GGGACTAACT | 1.07 |
| GCCCTGGACC | 1.01 |
| GTGTTATAA | 1.05 |
| CTACTGGACC | 1.16 |
| TTAGGTGACA | 1.02 |
| GAACGTCTGA | 1.05 |
| AAAAGACCTT | 1.27 |
| CTGGGTACAC | 0.961 |
| CAGATACCTT | 1.09 |
| CATTCATATT | 1.02 |
| AGCACAGTTA | 1.01 |
| TTTCATAACT | 1.02 |
| CGTTCCTGGG | 1.01 |
| GCCCGCGCAG | 1.01 |
| GGAGTCTTAC | 1.03 |
| GAAGCGCCTT | 1.02 |
| CACAGTAGCC | 1.05 |
| TCCTGCACG | 1.95 |
| GAATCCACAC | 1.12 |
| ACTATAAGGG | 1.08 |
| TGTAGAAGGG | 1.03 |
| TATCGGCATT | 1.03 |
| GCACCATATA | 1.03 |
| GGGACGAAGG | 0.902 |
| GCAGCAAATT | 1 |

| Sequence | switch fluorescence ratio |
| --- | --- |
| CCGTAATGGA | 1.21 |
| AGAGGTACTT | 0.994 |
| AACTCATGCG | 0.956 |
| AGACGACAAA | 1.15 |
| CGTGGGACGG | 0.997 |
| ACTTAGACAT | 1.06 |
| GAATGCTTTT | 1.02 |
| CATTAATACG | 1.04 |
| AAAATGAGTA | 0.967 |
| TGTTCAGTTG | 1.04 |
| ACGTTCGACA | 1.24 |
| AGCGAGAAAA | 1.06 |
| ATTTAGTTAC | 1 |
| CCAGGGACC | 1.03 |
| CCCAGATAGG | 1.03 |
| GATAGTCCCG | 1.04 |
| CCAATATGCA | 1.02 |
| TAGTATTTAA | 1.04 |
| TTCTGTTGTT | 1.06 |
| AATCCTGATC | 1.27 |
| TATAAGTCTT | 0.985 |
| CACTGTTGTG | 1.01 |
| GGCCGAGTGA | 1.06 |
| TGACAGAATA | 1.02 |
| ATAGTAAAG | 1 |
| GGGGACGTGA | 1.02 |

| Sequence | switch fluorescence ratio |
| --- | --- |
| CCACAGCTGT | 1.24 |
| CGGCAAAAAC | 1.98 |
| TGTGGCTTAG | 0.996 |
| GTAGACCCTT | 1.02 |
| TGGGTCTAT | 0.986 |
| ATCTAGCTTT | 0.961 |
| AGAGTGAGA | 1.02 |
| TACTTAGTCA | 0.998 |
| TTGGGCGAAG | 0.969 |
| TTAAGAACAT | 0.964 |
| CGGCTCAATT | 1.06 |
| GGGACTATTG | 0.97 |
| GTTATAACCA | 1.03 |
| TTACGACCTC | 1.17 |
| CATCCCGTTA | 1.14 |
| TATTAGAGGC | 1.01 |
| TTGTCAAATG | 1.01 |
| GTCGTTGCGC | 0.979 |
| GTTCGTGACG | 0.982 |
| GTGTCAAATA | 0.939 |
| TTAGTATTTC | 0.973 |
| TGGTCATCAT | 0.96 |
| GCTTATCT | 0.95 |
| ACTTCACTTA | 1.4 |

— the supplement of paper PMC10126150
